Experimental data reported in the supplement of paper PMC8728848.
The list shows a part of the results.

Experiments:
Test in all cases: glycan array binding signal (z-score within array); higher = stronger binding
Details in all cases: glycan notation: IUPAC condensed, linker removed
Glc(b1-4)Glc = target: Glc(b1-4)Glc
In short: (§1)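 Glycan array binding is given as a within-array Z-score, which can be read as non-binding when negative. The arrays, 3228 of them, came from the Consortium for Functional Glycomics database and were retained only where the protein sequence was available. Z-scores were averaged across arrays of the same protein sequence at different concentrations or buffers and across linkers.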

Glc(b1-6)Glc = target: Glc(b1-6)Glc
In short: as §1

GlcA(b1-3)Gal = target: GlcA(b1-3)Gal
In short: as §1

GlcA(b1-3)GlcNAc = target: GlcA(b1-3)GlcNAc
In short: as §1

GlcA(b1-6)Gal = target: GlcA(b1-6)Gal
In short: as §1

[1] = target: GlcA3S(b1-3)Gal(b1-4)GlcNAc(b1-2)Man
In short: as §1

[2] = target: GlcA3S(b1-3)Gal(b1-4)GlcNAc(b1-3)Gal(b1-4)Glc
In short: as §1

[3] = target: GlcNAc(a1-3)Gal(b1-4)GlcNAc
In short: as §1

[4] = target: GlcNAc(a1-4)Gal(b1-3)GlcNAc
In short: as §1

[5] = target: GlcNAc(a1-4)Gal(b1-4)GalNAc
In short: as §1

[6] = target: GlcNAc(a1-4)Gal(b1-4)GlcNAc
In short: as §1

[7] = target: GlcNAc(a1-4)Gal(b1-4)GlcNAc(b1-3)Gal(b1-4)Glc
In short: as §1

[8] = target: GlcNAc(a1-4)Gal(b1-4)GlcNAc(b1-3)Gal(b1-4)GlcNAc
In short: as §1

[9] = target: GlcNAc(a1-4)Gal(b1-4)GlcNAc(b1-3)Gal(b1-4)GlcNAc(b1-3)Gal(b1-4)GlcNAc
In short: as §1

[10] = target: GlcNAc(a1-4)Gal(b1-4)GlcNAc(b1-3)Gal(b1-4)[Fuc(a1-3)]GlcNAc(b1-3)Gal(b1-4)[Fuc(a1-3)]GlcNAc
In short: as §1

[11] = target: GlcNAc(a1-6)Gal(b1-4)GlcNAc
In short: as §1

[12] = target: GlcNAc(b1-2)Gal(b1-3)GalNAc
In short: as §1

[13] = target: GlcNAc(b1-2)Man(a1-3)[GlcNAc(b1-2)Man(a1-6)]Man(b1-4)GlcNAc(b1-4)GlcNAc
In short: as §1

[14] = target: GlcNAc(b1-2)Man(a1-3)[GlcNAc(b1-2)Man(a1-6)]Man(b1-4)GlcNAc(b1-4)[Fuc(a1-6)]GlcNAc
In short: as §1

[15] = target: GlcNAc(b1-2)Man(a1-3)[GlcNAc(b1-4)][GlcNAc(b1-2)Man(a1-6)]Man(b1-4)GlcNAc(b1-4)GlcNAc
In short: as §1

[16] = target: GlcNAc(b1-2)Man(a1-3)[GlcNAc(b1-4)][GlcNAc(b1-2)Man(a1-6)]Man(b1-4)GlcNAc(b1-4)[Fuc(a1-6)]GlcNAc
In short: as §1

[17] = target: GlcNAc(b1-2)[GlcNAc(b1-4)]Man(a1-3)[GlcNAc(b1-2)Man(a1-6)]Man(b1-4)GlcNAc(b1-4)GlcNAc
In short: as §1

[18] = target: GlcNAc(b1-2)[GlcNAc(b1-4)]Man(a1-3)[GlcNAc(b1-4)][GlcNAc(b1-2)Man(a1-6)]Man(b1-4)GlcNAc(b1-4)GlcNAc
In short: as §1

[19] = target: GlcNAc(b1-2)[GlcNAc(b1-4)]Man(a1-3)[GlcNAc(b1-4)][GlcNAc(b1-2)[GlcNAc(b1-6)]Man(a1-6)]Man(b1-4)GlcNAc(b1-4)GlcNAc
In short: as §1

[20] = target: GlcNAc(b1-2)[GlcNAc(b1-4)]Man(a1-3)[GlcNAc(b1-4)][GlcNAc(b1-2)[GlcNAc(b1-6)]Man(a1-6)]Man(b1-4)GlcNAc(b1-4)[Fuc(a1-6)]GlcNAc
In short: as §1

[21] = target: GlcNAc(b1-2)[GlcNAc(b1-6)]Man(a1-6)[GlcNAc(b1-2)Man(a1-3)]Man(b1-4)GlcNAc(b1-4)GlcNAc
In short: as §1

[22] = target: GlcNAc(b1-2)[GlcNAc(b1-6)]Man(a1-6)[GlcNAc(b1-2)Man(a1-3)]Man(b1-4)GlcNAc(b1-4)[Fuc(a1-6)]GlcNAc
In short: as §1

[23] = target: GlcNAc(b1-2)[GlcNAc(b1-6)]Man(a1-6)[GlcNAc(b1-4)][GlcNAc(b1-2)Man(a1-3)]Man(b1-4)GlcNAc(b1-4)GlcNAc
In short: as §1

GlcNAc(b1-3)Fuc = target: GlcNAc(b1-3)Fuc
In short: as §1

GlcNAc(b1-3)Gal = target: GlcNAc(b1-3)Gal
In short: as §1

[24] = target: GlcNAc(b1-3)Gal(b1-3)GalNAc
In short: as §1

GlcNAc(b1-3)Gal(b1-4)Glc = target: GlcNAc(b1-3)Gal(b1-4)Glc
In short: as §1

[25] = target: GlcNAc(b1-3)Gal(b1-4)GlcNAc
In short: as §1

[26] = target: GlcNAc(b1-3)Gal(b1-4)GlcNAc(b1-2)Man(a1-3)[GlcNAc(b1-3)Gal(b1-4)GlcNAc(b1-2)Man(a1-6)]Man(b1-4)GlcNAc(b1-4)GlcNAc
In short: as §1

[27] = target: GlcNAc(b1-3)Gal(b1-4)GlcNAc(b1-2)Man(a1-3)[GlcNAc(b1-3)Gal(b1-4)GlcNAc(b1-2)Man(a1-6)]Man(b1-4)GlcNAc(b1-4)[Fuc(a1-6)]GlcNAc
In short: as §1

[28] = target: GlcNAc(b1-3)Gal(b1-4)GlcNAc(b1-2)[GlcNAc(b1-3)Gal(b1-4)GlcNAc(b1-6)]Man(a1-6)[GlcNAc(b1-3)Gal(b1-4)GlcNAc(b1-2)Man(a1-3)]Man(b1-4)GlcNAc(b1-4)GlcNAc
In short: as §1

[29] = target: GlcNAc(b1-3)Gal(b1-4)GlcNAc(b1-3)Gal(b1-4)GlcNAc
In short: as §1

[30] = target: GlcNAc(b1-3)Gal(b1-4)GlcNAc(b1-3)Gal(b1-4)GlcNAc(b1-2)Man(a1-3)[GlcNAc(b1-3)Gal(b1-4)GlcNAc(b1-3)Gal(b1-4)GlcNAc(b1-2)Man(a1-6)]Man(b1-4)GlcNAc(b1-4)GlcNAc
In short: as §1

[31] = target: GlcNAc(b1-3)Gal(b1-4)GlcNAc(b1-3)Gal(b1-4)GlcNAc(b1-2)Man(a1-3)[GlcNAc(b1-3)Gal(b1-4)GlcNAc(b1-3)Gal(b1-4)GlcNAc(b1-2)Man(a1-6)]Man(b1-4)GlcNAc(b1-4)[Fuc(a1-6)]GlcNAc
In short: as §1

[32] = target: GlcNAc(b1-3)Gal(b1-4)GlcNAc(b1-3)Gal(b1-4)GlcNAc(b1-2)[GlcNAc(b1-3)Gal(b1-4)GlcNAc(b1-3)Gal(b1-4)GlcNAc(b1-6)]Man(a1-6)[GlcNAc(b1-3)Gal(b1-4)GlcNAc(b1-3)Gal(b1-4)GlcNAc(b1-2)Man(a1-3)]Man(b1-4)GlcNAc(b1-4)[Fuc(a1-6)]GlcNAc
In short: as §1

[33] = target: GlcNAc(b1-3)Gal(b1-4)GlcNAc(b1-3)Gal(b1-4)GlcNAc(b1-3)Gal(b1-4)GlcNAc(b1-2)Man(a1-3)[GlcNAc(b1-3)Gal(b1-4)GlcNAc(b1-3)Gal(b1-4)GlcNAc(b1-3)Gal(b1-4)GlcNAc(b1-2)Man(a1-6)]Man(b1-4)GlcNAc(b1-4)GlcNAc
In short: as §1

[34] = target: GlcNAc(b1-3)Gal(b1-4)GlcNAc(b1-3)Gal(b1-4)GlcNAc(b1-3)Gal(b1-4)GlcNAc(b1-2)Man(a1-3)[GlcNAc(b1-3)Gal(b1-4)GlcNAc(b1-3)Gal(b1-4)GlcNAc(b1-3)Gal(b1-4)GlcNAc(b1-2)Man(a1-6)]Man(b1-4)GlcNAc(b1-4)[Fuc(a1-6)]GlcNAc
In short: as §1

[35] = target: GlcNAc(b1-3)Gal(b1-4)GlcNAc(b1-3)Gal(b1-4)GlcNAc(b1-3)Gal(b1-4)GlcNAc(b1-2)[GlcNAc(b1-3)Gal(b1-4)GlcNAc(b1-3)Gal(b1-4)GlcNAc(b1-3)Gal(b1-4)GlcNAc(b1-6)]Man(a1-6)[GlcNAc(b1-3)Gal(b1-4)GlcNAc(b1-3)Gal(b1-4)GlcNAc(b1-3)Gal(b1-4)GlcNAc(b1-2)Man(a1-3)]Man(b1-4)GlcNAc(b1-4)[Fuc(a1-6)]GlcNAc
In short: as §1

[36] = target: GlcNAc(b1-3)Gal(b1-4)GlcNAc(b1-3)Gal(b1-4)GlcNAc(b1-3)Gal(b1-4)GlcNAc(b1-3)Gal(b1-4)GlcNAc(b1-2)Man(a1-3)[GlcNAc(b1-3)Gal(b1-4)GlcNAc(b1-3)Gal(b1-4)GlcNAc(b1-3)Gal(b1-4)GlcNAc(b1-3)Gal(b1-4)GlcNAc(b1-2)Man(a1-6)]Man(b1-4)GlcNAc(b1-4)GlcNAc
In short: as §1

[37] = target: GlcNAc(b1-3)Gal(b1-4)GlcNAc(b1-3)Gal(b1-4)GlcNAc(b1-3)Gal(b1-4)GlcNAc(b1-3)Gal(b1-4)GlcNAc(b1-2)Man(a1-3)[GlcNAc(b1-3)Gal(b1-4)GlcNAc(b1-3)Gal(b1-4)GlcNAc(b1-3)Gal(b1-4)GlcNAc(b1-3)Gal(b1-4)GlcNAc(b1-2)Man(a1-6)]Man(b1-4)GlcNAc(b1-4)[Fuc(a1-6)]GlcNAc
In short: as §1

B1: Als3-41 (Candida albicans) (protein)
chain: KTITGVFNSFNSLTWSNAATYNYKGPGTPTWNAVLGWSLDGTSASPGDTFTLNMPCVFKFTTSQTSVDLTAHGVKYATCQFQAGEEFMTFSTLTCTVSNTLTPSIKALGTVTLPLAFNVGGTGSSVDLEDSKCFTAGTNTVTFNDGGKKISINVDFERSNVDPKGYLTDSRVIPSLNKVSTLFVAPQCANGYTSGTMGFANTYGDVQIDCSNIHVGITKGLNDWNYPVSSESFSYTKTCSSNGIFITYKNVPAGYRPFVDAYISATDVNSYTLSYANEYTCAGGYWQRAPFTLRWTGYRNSDAGSNGIVIVATTRTVTDSTTAVTTLPFDPNRDKTKTIEILKPIPTTTITTSYVGVTTSYLTKTAPIGETATVIVD
For B1, the “glycan array binding signal (z-score)” value (Glc(b1-4)Glc) was -0.031, the “glycan array binding signal (z-score)” value (Glc(b1-6)Glc) was -0.201 and the “glycan array binding signal (z-score)” value (GlcA(b1-3)Gal) was -0.31. The “glycan array binding signal (z-score)” value (GlcA(b1-3)GlcNAc) was -0.131, the “glycan array binding signal (z-score)” value (GlcA(b1-6)Gal) was -0.221 and the “glycan array binding signal (z-score)” value [1] was -0.342. The “glycan array binding signal (z-score)” value [2] was 0.099, the “glycan array binding signal (z-score)” value [3] was -0.146 and the “glycan array binding signal (z-score)” value [4] was -0.24. The “glycan array binding signal (z-score)” value [5] was -0.114, the “glycan array binding signal (z-score)” value [6] was -0.237 and the “glycan array binding signal (z-score)” value [7] was -0.297. For the same binder, the “glycan array binding signal (z-score)” value [8] was -0.011, the “glycan array binding signal (z-score)” value [9] was -0.329 and the “glycan array binding signal (z-score)” value [10] was 0.656. For the same binder, the “glycan array binding signal (z-score)” value [11] was 0.077, the “glycan array binding signal (z-score)” value [12] was -0.144 and the “glycan array binding signal (z-score)” value [13] was -0.278. The “glycan array binding signal (z-score)” value [14] was 0.322, the “glycan array binding signal (z-score)” value [15] was -0.286 and the “glycan array binding signal (z-score)” value [16] was -0.328. For the same binder, the “glycan array binding signal (z-score)” value [17] was -0.372, the “glycan array binding signal (z-score)” value [18] was -0.136 and the “glycan array binding signal (z-score)” value [19] was -0.308. The “glycan array binding signal (z-score)” value [20] was -0.311, the “glycan array binding signal (z-score)” value [21] was -0.27 and the “glycan array binding signal (z-score)” value [22] was -0.266. For the same binder, the “glycan array binding signal (z-score)” value [23] was -0.362, the “glycan array binding signal (z-score)” value (GlcNAc(b1-3)Fuc) was 0.635 and the “glycan array binding signal (z-score)” value (GlcNAc(b1-3)Gal) was -0.245. For the same binder, the “glycan array binding signal (z-score)” value [24] was -0.224, the “glycan array binding signal (z-score)” value (GlcNAc(b1-3)Gal(b1-4)Glc) was -0.199 and the “glycan array binding signal (z-score)” value [25] was -0.27. The “glycan array binding signal (z-score)” value [26] was -0.231, the “glycan array binding signal (z-score)” value [27] was 0.627 and the “glycan array binding signal (z-score)” value [28] was 1.97. For the same binder, the “glycan array binding signal (z-score)” value [29] was -0.339, the “glycan array binding signal (z-score)” value [30] was 2.21 and the “glycan array binding signal (z-score)” value [31] was 0.866. For the same binder, the “glycan array binding signal (z-score)” value [32] was 0.214, the “glycan array binding signal (z-score)” value [33] was -0.156 and the “glycan array binding signal (z-score)” value [34] was 1.72. The “glycan array binding signal (z-score)” value [35] was 0.012, the “glycan array binding signal (z-score)” value [36] was -0.211 and the “glycan array binding signal (z-score)” value [37] was 1.01.
